The list shows a part of the results. Repeats are few or missing, and single values can be far off.
Tests used:
Assay in all cases: cell count relative to DMSO control; melanoma cells; higher = more viable cells
Details in all cases: library dose: standard library concentration; 72 h
G361 = test system: G361
IPC-298 = test system: IPC-298
IST-MEL1 = test system: IST-MEL1
LB2518-MEL = test system: LB2518-MEL
LOXIMVI = test system: LOXIMVI
MEL-HO = test system: MEL-HO
MZ2-MEL = test system: MZ2-MEL
MeWo = test system: MeWo
RPMI7951 = test system: RPMI7951
RVH-421 = test system: RVH-421
SkMel28 = test system: SkMel28
SkMel2 = test system: SkMel2
SkMel30 = test system: SkMel30
SkMel5 = test system: SkMel5
UACC257 = test system: UACC257
UACC62 = test system: UACC62
WM115 = test system: WM115
WM1716 = test system: WM1716
WM1745 = test system: WM1745
WM3526 = test system: WM3526
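Also: cells treated in 1,536-well plates, then fixed and DAPI-stained, with nuclei counted from automated high-throughput microscope images.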

Row | SMILES | cell count (G361) [%] | cell count (IPC-298) [%] | cell count (IST-MEL1) [%] | cell count (LB2518-MEL) [%] | cell count (LOXIMVI) [%] | cell count (MEL-HO) [%] | cell count (MZ2-MEL) [%] | cell count (MeWo) [%] | cell count (RPMI7951) [%] | cell count (RVH-421) [%] | cell count (SkMel28) [%] | cell count (SkMel2) [%] | cell count (SkMel30) [%] | cell count (SkMel5) [%] | cell count (UACC257) [%] | cell count (UACC62) [%] | cell count (WM115) [%] | cell count (WM1716) [%] | cell count (WM1745) [%] | cell count (WM3526) [%]
1 | CC(=O)c1c(C)c2cnc(Nc3ccc(N4CCNCC4)cn3)nc2n(C2CCCC2)c1=O [palbociclib] + CN(NC(=O)CC(=O)NN(C)C(=S)c1ccccc1)C(=S)c1ccccc1 [STA4783] (first compound 0.2 µM, partner dose 0.03 µM) | 40 | 67.5 | 20.4 | 34.5 | 58.4 | 83.8 | 83.7 | 24.8 | 63.9 | 55.1 | 27.6 | 50.5 | 53.7 | 51 | 84 | 44.6 | 14.9 | 47.6 | 35.6 | 57.7
2 | Nc1ccn([C@@H]2O[C@H](CO)[C@@H](O)C2(F)F)c(=O)n1 [gemcitabine] + Cc1cc(N2CCOCC2)cc2[nH]c(-c3c(NC[C@@H](O)c4cccc(Cl)c4)cc[nH]c3=O)nc12 [BMS536924] (first compound 0.002 µM, partner dose 1 µM) | 66.6 | 58.5 | 74.6 | 58.9 | 76.9 | 72.5 | 95.1 | 50.9 | 121 | 92.2 | 94.9 | 80.8 | 98.3 | 71.3 | 98.5 | 96 | 107 | 89.5 | 51.7 | 76.2
3 | CC(=O)O[C@@]12CO[C@@H]1C[C@H](O)[C@@]1(C)C(=O)[C@H](O)C3=C(C)[C@@H](OC(=O)[C@H](O)[C@@H](NC(=O)OC(C)(C)C)c4ccccc4)C[C@@](O)([C@@H](OC(=O)c4ccccc4)[C@H]21)C3(C)C [Docetaxel] + C#Cc1cccc(Nc2ncnc3cc(OCCOC)c(OCCOC)cc23)c1 [erlotinib] (first compound 0.0005 µM, partner dose 4 µM) | 12.6 | 31.7 | 35 | 21.4 | 61.7 | 27.9 | 24.7 | 15.4 | 17.8 | 38 | 23 | 15.5 | 35.5 | 21.7 | 52.2 | 43.3 | 28.3 | 31.9 | 25.4 | 38.3
4 | Nc1nc(F)nc2c1ncn2[C@@H]1O[C@H](CO)[C@@H](O)[C@@H]1O [fludarabine] + Cc1nc(Nc2ncc(C(=O)Nc3c(C)cccc3Cl)s2)cc(N2CCN(CCO)CC2)n1 [dasatanib] (first compound 1 µM, partner dose 0.02 µM) | 70.1 | 68.5 | 64.1 | 67.3 | 20.8 | 61.6 | 66.6 | 72 | 30 | 74.4 | 0.617 | 0.291 | 9.66 | 17.8 | 29.4 | 71.3 | 70.3 | 74.9 | 55 | 18.8
5 | CO[C@H]1C[C@@H]2CC[C@@H](C)[C@@](O)(O2)C(=O)C(=O)N2CCCC[C@H]2C(=O)O[C@H]([C@H](C)C[C@@H]2CC[C@@H](OCCO)[C@H](OC)C2)CC(=O)[C@H](C)/C=C(\C)[C@@H](O)[C@@H](OC)C(=O)[C@H](C)C[C@H](C)/C=C/C=C/C=C/1C [everolimus] + CO[C@@H]1[C@H](N(C)C(=O)c2ccccc2)C[C@H]2O[C@]1(C)n1c3ccccc3c3c4c(c5c6ccccc6n2c5c31)C(=O)NC4 [Midostaurin] (first compound 0.1 µM, partner dose 0.4 µM) | 38.7 | 60.2 | 72.4 | 51 | 54.2 | 58.3 | 54.4 | 46.6 | 50.9 | 82.4 | 43.1 | 49.1 | 74.5 | 46.8 | 60 | 59.1 | 44 | 52 | 50.1 | 75.8
6 | CC(=O)c1c(C)c2cnc(Nc3ccc(N4CCNCC4)cn3)nc2n(C2CCCC2)c1=O [palbociclib] + C[C@]1(c2nc3c(C(N)=O)cccc3[nH]2)CCCN1 [Veliparib] (first compound 0.2 µM, partner dose 7 µM) | 72.7 | 64.9 | 79.5 | 51.5 | 42 | 76.3 | 68 | 54.5 | 70.9 | 49 | 34.2 | 62.9 | 63.6 | 47.7 | 72.7 | 54.5 | 38.7 | 41.2 | 73.2 | 46.8
7 | CC(=O)c1c(C)c2cnc(Nc3ccc(N4CCNCC4)cn3)nc2n(C2CCCC2)c1=O [palbociclib] + Cc1cc(N2CCOCC2)cc2[nH]c(-c3c(NC[C@@H](O)c4cccc(Cl)c4)cc[nH]c3=O)nc12 [BMS536924] (first compound 0.2 µM, partner dose 1 µM) | 47.7 | 67.4 | 58.4 | 50.8 | 46.5 | 65.8 | 62.3 | 35.4 | 40.5 | 52.3 | 20.7 | 40.6 | 48.7 | 38.8 | 76.1 | 56.5 | 33.2 | 31.8 | 37.6 | 42.6

— the supplement of paper PMC4604168 (melanoma cell lines)
